Assay results from patent US9433687B2, “Anti-Notch3 antibodies and antibody-drug conjugates” (Pfizer Inc., priority 2012, dated 2016).
Values joined by “and” are separate entries in the source; they are usually repeats but may differ in a detail not shown here. Equal values may be shown once.

Assays:
HCC2429 (lung cancer) = assay: In vitro cytotoxicity (MTS), HCC2429; assay type: cell-based, human; conditions: Table 14; two individual repeats; LP = lacked potency
Protocol: The effects of anti-Notch3 ADCs were assessed on 1) cell lines endogenously expressing Notch3 protein: HCC2429 (lung cancer), OVCAR3 (ovarian cancer) and MDA-MB-468 (breast cancer), 2) cell lines engineered to over-express full length human Notch3 protein: MDA-MB-468/hNotch3 and U2OS/hNotch3, and 3) a negative control cell line (SW900) using an MTS cellular viability indicator (Promega, Madison, Wis.). These cell lines were cultured with increasing concentrations of anti-Notch3 ADCs comprising rat-human chimeric anti-Notch3 antibodies, ch28 and ch75, and humanized anti-Notch3 antibodies, hu28 and hu75, conjugated to various linker-payload combinations of the present invention. As a specificity control for the anti-Notch3-ADCs, non-targeted control-ADCs (huNeg8.8-ADCs or ch2H6-ADCs) were also tested on the same cell lines. After four days, viability of each culture was assessed. IC50 values were calculated by logistic non-linear regression, model #203 with XL fit v4.2 (IDBS, Guildford, Surry, UK) and presented as ng Ab/mL. The drug antibody ratio (DAR) is also provided.
This process generated the anti-Notch3 cysteine mutant ADCs: hu28-(L443C)-vc0101 and hu28-(L443C/κK183C)-vc0101. The activity of the anti-Notch3 cysteine mutant ADCs were assessed on cell lines endogenously expressing Notch3 protein: HCC2429 (lung cancer) and OVCAR3 (ovarian cancer) using an MTS cellular viability indicator as described in previous Examples.

HCC2429 = target: T1, HCC2429 (Homo sapiens, UniProt Q9UM47); assay: Cytotoxicity (MTS) after control or Notch3 siRNA, HCC2429; assay type: cell-based; conditions: 96 hours, LP = lacked potency
T1 construct: endogenous Notch3 expressing cell lines, HCC2429 and MDA-MB-468; endogenous in cells; host or cells: HCC2429
Protocol: Notch3 knockdown with siRNAs was used to confirm that the in vitro cytotoxicity of anti-Notch3 ADCs was dependent on the expression of the Notch3 protein. siRNA transfections were generated using ON-TARGET plus SMART pool human Notch3 (L-011093-00), ON-TARGET plus Control Non-Targeting pool (D-001810-10) (Thermo Scientific Dharmacon) and Lipofectamine RNAiMAX Reagent (Invitrogen). Two to 2.5×10^6 cells of HCC2429, OVCAR3 and MDA-MB-468/hNotch3 cells were plated in 10 cm dishes in growth medium without antibiotics the day before transfection. The next day fresh medium without antibiotics was added. The siRNAs and the Lipofectamine RNAiMAX were diluted in OPTI-MEM media and used as per the manufacturer's specifications. Each of the cell lines was transfected with control and Notch3 siRNAs. The cells were incubated with the transfection mixture for 24 hours in a humidified, 37° C., 5% CO2 incubator. After 24 hours, cells were trypsinized and plated for assessment using MTS cellular viability indicator (Promega, Madison, Wis.).
Depending on the cell line, cells were then seeded at a density of 2,500 to 5,000 cells per well 24 hours before treatment. Cells were treated with 3-fold serially diluted humanized anti-Notch3 ADCs in triplicates at 10 concentrations (range 0-30 μg Ab/ml). […] For experiments with 2 individual repeats, average IC50 values were calculated along with standard error of the mean (S.E.M.). Western blot analysis on extracts prepared from control and Notch3 siRNA-treated cells was performed to confirm that Notch3 knockdown occurred for up to 144 hours (data not shown). Cell lines that expressed Notch3 (herein termed control siRNA) or had reduced Notch3 expression after siRNA knockdown (herein termed Notch3 siRNA) were cultured with increasing concentrations of humanized anti Notch3 ADCs. As a specificity control for the anti-Notch3 ADCs, non-targeted control-ADCs (huNeg8.8-ADCs) were also tested on the same cell lines. After four days, viability of each culture was assessed. IC50 values were calculated by logistic non-linear regression, model #203 with XL fit v4.2 (IDBS, Guildford, Surry, UK) and presented as ng Ab/mL. The drug antibody ratio (DAR) is also provided.

N87 gastric xenografts = assay: N87 gastric xenograft model; assay type: in vivo, mouse
Protocol: Similar in vivo experiments were performed with the N87 gastric cancer cell line as described above. To generate xenografts, nude (Nu/Nu) female mice were implanted subcutaneously with 8×10^6 N87 cells in 50% Matrigel (BD Biosciences).
The N87 gastric model was also dosed intravenously Q4d×4 with PBS vehicle, rat-human chimeric anti-Notch3 ADCs and control huNeg-8.8 ADCs, at a dose of 5 mg/kg as provided in FIG. 16D.
The N87 gastric model was also dosed intravenously Q4d×4 with PBS vehicle and rat-human chimeric anti-Notch3 ADCs ch28-mc0131, ch75-mc0131, ch28-m(H2O)c-0131 and ch75-m(H2O)c-0131 at a dose of 5 mg/kg as provided in FIG. 16E.

T1 sequence (Q9UM47 40-2321): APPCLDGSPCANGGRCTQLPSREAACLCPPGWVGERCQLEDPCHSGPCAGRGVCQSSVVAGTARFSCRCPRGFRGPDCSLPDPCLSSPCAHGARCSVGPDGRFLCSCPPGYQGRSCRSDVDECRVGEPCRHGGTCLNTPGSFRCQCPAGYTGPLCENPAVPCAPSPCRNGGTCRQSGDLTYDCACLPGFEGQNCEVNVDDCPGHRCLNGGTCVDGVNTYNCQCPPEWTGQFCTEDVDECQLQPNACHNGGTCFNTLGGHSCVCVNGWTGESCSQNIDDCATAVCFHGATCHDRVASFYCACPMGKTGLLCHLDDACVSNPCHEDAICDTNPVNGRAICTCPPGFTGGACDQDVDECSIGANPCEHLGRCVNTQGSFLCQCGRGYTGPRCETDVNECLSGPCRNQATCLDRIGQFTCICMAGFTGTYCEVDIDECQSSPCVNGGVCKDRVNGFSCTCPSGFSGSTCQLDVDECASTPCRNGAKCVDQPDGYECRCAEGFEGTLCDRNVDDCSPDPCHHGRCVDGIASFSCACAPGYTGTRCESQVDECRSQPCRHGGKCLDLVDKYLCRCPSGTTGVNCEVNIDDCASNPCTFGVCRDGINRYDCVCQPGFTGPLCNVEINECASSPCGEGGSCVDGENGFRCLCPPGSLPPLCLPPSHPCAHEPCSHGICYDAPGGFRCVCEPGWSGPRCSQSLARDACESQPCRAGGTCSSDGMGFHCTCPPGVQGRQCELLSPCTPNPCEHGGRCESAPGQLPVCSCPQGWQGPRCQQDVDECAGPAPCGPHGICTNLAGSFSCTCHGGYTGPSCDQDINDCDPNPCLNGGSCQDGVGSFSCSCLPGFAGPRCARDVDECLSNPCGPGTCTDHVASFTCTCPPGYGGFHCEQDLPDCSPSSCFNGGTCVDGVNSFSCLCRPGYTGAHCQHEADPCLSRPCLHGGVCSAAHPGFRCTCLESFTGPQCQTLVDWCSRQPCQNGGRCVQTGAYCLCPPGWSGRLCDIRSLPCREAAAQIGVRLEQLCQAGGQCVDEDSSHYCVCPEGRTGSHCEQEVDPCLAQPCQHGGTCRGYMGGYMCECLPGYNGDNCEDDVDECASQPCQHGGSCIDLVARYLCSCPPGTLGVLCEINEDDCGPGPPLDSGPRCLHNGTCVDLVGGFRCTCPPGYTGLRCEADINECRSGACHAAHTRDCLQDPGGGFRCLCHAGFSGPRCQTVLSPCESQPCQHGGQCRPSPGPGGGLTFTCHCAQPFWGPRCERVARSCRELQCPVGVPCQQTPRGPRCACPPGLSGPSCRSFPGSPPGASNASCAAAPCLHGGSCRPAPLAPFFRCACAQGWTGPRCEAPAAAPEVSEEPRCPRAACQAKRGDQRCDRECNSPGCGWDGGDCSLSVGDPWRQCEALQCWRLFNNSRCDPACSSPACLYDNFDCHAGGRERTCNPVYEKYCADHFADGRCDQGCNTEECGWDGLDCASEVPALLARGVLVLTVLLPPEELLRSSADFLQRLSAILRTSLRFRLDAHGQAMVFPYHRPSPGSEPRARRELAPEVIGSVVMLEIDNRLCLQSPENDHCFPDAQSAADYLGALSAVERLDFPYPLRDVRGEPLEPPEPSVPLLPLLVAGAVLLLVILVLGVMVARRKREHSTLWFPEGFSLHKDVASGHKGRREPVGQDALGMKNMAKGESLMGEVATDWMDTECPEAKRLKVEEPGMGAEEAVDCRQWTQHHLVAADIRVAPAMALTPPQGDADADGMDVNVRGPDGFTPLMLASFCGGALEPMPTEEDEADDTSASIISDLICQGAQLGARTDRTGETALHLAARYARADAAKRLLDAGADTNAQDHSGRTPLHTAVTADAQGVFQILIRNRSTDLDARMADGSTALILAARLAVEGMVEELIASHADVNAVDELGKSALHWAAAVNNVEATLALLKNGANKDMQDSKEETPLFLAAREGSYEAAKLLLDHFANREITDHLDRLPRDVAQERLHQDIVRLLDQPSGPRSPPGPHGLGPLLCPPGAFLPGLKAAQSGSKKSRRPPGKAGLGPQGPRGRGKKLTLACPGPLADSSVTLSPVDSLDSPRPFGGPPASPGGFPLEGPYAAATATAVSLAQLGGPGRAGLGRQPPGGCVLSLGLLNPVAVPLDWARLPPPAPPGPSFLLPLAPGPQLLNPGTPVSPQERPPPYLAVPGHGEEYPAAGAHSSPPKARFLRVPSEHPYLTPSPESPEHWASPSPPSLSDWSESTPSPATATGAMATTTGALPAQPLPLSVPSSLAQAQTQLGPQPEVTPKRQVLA

B1: hu28-vc0101: hu28 conjugated to vc0101 linker-payload (conjugate)
heavy: EVQLVESGGGLVQPGGSLRLSCAASGFTFRDYGMTWVRQAPGKGLEWVAYISSGSNYIYYAEAVKGRFTISRDNAKNSLYLQMNSLRAEDTAVYYCARRGPFVLDAWGQGTLVTVSS[letters of human IgG1 constant region omitted]
light: DIQMTQSPSSLSASVGDRVTITCKASQSINRYLHWYQQKPGKAPKLLIYNANGLQTGVPSRFSGSGSGTDFTLTISSLQPEDFATYYCLQHNTWPDTFGGGTKVEIKRTVAAPSVFIFPPSDEQLKSGTASVVCLLNNFYPREAKVQWKVDNALQSGNSQESVTEQDSKDSTYSLSSTLTLSKADYEKHKVYACEVTHQGLSSPVTKSFNRGEC
B1 was tested, and the “IC50 (ng Ab/mL), HCC2429” value (HCC2429 (lung cancer)) was 473 ng Ab/mL and 2940 ng Ab/mL, the “IC50 (ng Ab/mL) ± S.E.M., HCC2429 Control siRNA” value (HCC2429; Control siRNA) was 930 ± 529 ng Ab/mL and the “IC50 (ng Ab/mL) ± S.E.M., HCC2429 Notch3 siRNA” value (HCC2429; Notch3 siRNA knockdown) was 7138 ± 827 ng Ab/mL. The tumor volume (N87 gastric xenografts; DAY 0, dose 1 mg/kg intravenously Q4d×4) was 321 mm^3, the tumor volume (N87 gastric xenografts; DAY 0, dose 3 mg/kg intravenously Q4d×4) was 326 mm^3 and the tumor volume (N87 gastric xenografts; DAY 0, dose 5 mg/kg intravenously Q4d×4) was 321 mm^3. The tumor volume (N87 gastric xenografts; DAY 4, dose 1 mg/kg intravenously Q4d×4) was 369 mm^3, the tumor volume (N87 gastric xenografts; DAY 4, dose 3 mg/kg intravenously Q4d×4) was 339 mm^3 and the tumor volume (N87 gastric xenografts; DAY 4, dose 5 mg/kg intravenously Q4d×4) was 344 mm^3. The tumor volume (N87 gastric xenografts; DAY 7, dose 1 mg/kg intravenously Q4d×4) was 429 mm^3, the tumor volume (N87 gastric xenografts; DAY 7, dose 3 mg/kg intravenously Q4d×4) was 302 mm^3 and the tumor volume (N87 gastric xenografts; DAY 7, dose 5 mg/kg intravenously Q4d×4) was 272 mm^3. It also gave a tumor volume (N87 gastric xenografts; DAY 11, dose 1 mg/kg intravenously Q4d×4) of 304 mm^3, a tumor volume (N87 gastric xenografts; DAY 11, dose 3 mg/kg intravenously Q4d×4) of 182 mm^3 and a tumor volume (N87 gastric xenografts; DAY 11, dose 5 mg/kg intravenously Q4d×4) of 152 mm^3. It also gave a tumor volume (N87 gastric xenografts; DAY 14, dose 1 mg/kg intravenously Q4d×4) of 282 mm^3, a tumor volume (N87 gastric xenografts; DAY 14, dose 3 mg/kg intravenously Q4d×4) of 191 mm^3 and a tumor volume (N87 gastric xenografts; DAY 14, dose 5 mg/kg intravenously Q4d×4) of 155 mm^3. It also gave a tumor volume (N87 gastric xenografts; DAY 18, dose 1 mg/kg intravenously Q4d×4) of 263 mm^3, a tumor volume (N87 gastric xenografts; DAY 18, dose 3 mg/kg intravenously Q4d×4) of 161 mm^3 and a tumor volume (N87 gastric xenografts; DAY 18, dose 5 mg/kg intravenously Q4d×4) of 138 mm^3. For the same molecule, the tumor volume (N87 gastric xenografts; DAY 21, dose 1 mg/kg intravenously Q4d×4) was 227 mm^3, the tumor volume (N87 gastric xenografts; DAY 21, dose 3 mg/kg intravenously Q4d×4) was 123 mm^3 and the tumor volume (N87 gastric xenografts; DAY 21, dose 5 mg/kg intravenously Q4d×4) was 110 mm^3. It also gave a tumor volume (N87 gastric xenografts; DAY 26, dose 1 mg/kg, intravenously Q4d×4) of 205 mm^3, a tumor volume (N87 gastric xenografts; DAY 26, dose 3 mg/kg, intravenously Q4d×4) of 108 mm^3 and a tumor volume (N87 gastric xenografts; DAY 26, dose 5 mg/kg intravenously Q4d×4) of 69 mm^3. The tumor volume (N87 gastric xenografts; DAY 29, dose 1 mg/kg, intravenously Q4d×4) was 180 mm^3, the tumor volume (N87 gastric xenografts; DAY 29, dose 3 mg/kg, intravenously Q4d×4) was 99 mm^3 and the tumor volume (N87 gastric xenografts; DAY 29, dose 5 mg/kg intravenously Q4d×4) was 50 mm^3. The tumor volume (N87 gastric xenografts; DAY 33, dose 1 mg/kg, intravenously Q4d×4) was 211 mm^3, the tumor volume (N87 gastric xenografts; DAY 33, dose 3 mg/kg, intravenously Q4d×4) was 106 mm^3 and the tumor volume (N87 gastric xenografts; DAY 33, dose 5 mg/kg intravenously Q4d×4) was 43 mm^3. For the same molecule, the tumor volume (N87 gastric xenografts; DAY 36, dose 1 mg/kg, intravenously Q4d×4) was 215 mm^3, the tumor volume (N87 gastric xenografts; DAY 36, dose 3 mg/kg, intravenously Q4d×4) was 122 mm^3 and the tumor volume (N87 gastric xenografts; DAY 36, dose 5 mg/kg intravenously Q4d×4) was 52 mm^3. For the same molecule, the tumor volume (N87 gastric xenografts; DAY 39, dose 1 mg/kg intravenously Q4d×4) was 261 mm^3, the tumor volume (N87 gastric xenografts; DAY 39, dose 3 mg/kg intravenously Q4d×4) was 128 mm^3 and the tumor volume (N87 gastric xenografts; DAY 39, dose 5 mg/kg intravenously Q4d×4) was 45 mm^3. It also gave a tumor volume (N87 gastric xenografts; DAY 42, dose 1 mg/kg, intravenously Q4d×4) of 283 mm^3, a tumor volume (N87 gastric xenografts; DAY 42, dose 3 mg/kg, intravenously Q4d×4) of 149 mm^3 and a tumor volume (N87 gastric xenografts; DAY 42, dose 5 mg/kg intravenously Q4d×4) of 34 mm^3. It also gave a tumor volume (N87 gastric xenografts; DAY 47, dose 1 mg/kg, intravenously Q4d×4) of 262 mm^3, a tumor volume (N87 gastric xenografts; DAY 47, dose 3 mg/kg, intravenously Q4d×4) of 105 mm^3 and a tumor volume (N87 gastric xenografts; DAY 47, dose 5 mg/kg intravenously Q4d×4) of 25 mm^3. It also gave a tumor volume (N87 gastric xenografts; DAY 53, dose 1 mg/kg intravenously Q4d×4) of 302 mm^3, a tumor volume (N87 gastric xenografts; DAY 53, dose 3 mg/kg intravenously Q4d×4) of 104 mm^3 and a tumor volume (N87 gastric xenografts; DAY 53, dose 5 mg/kg intravenously Q4d×4) of 29 mm^3. For the same molecule, the tumor volume (N87 gastric xenografts; DAY 62, dose 1 mg/kg intravenously Q4d×4) was 415 mm^3, the tumor volume (N87 gastric xenografts; DAY 62, dose 3 mg/kg intravenously Q4d×4) was 116 mm^3 and the tumor volume (N87 gastric xenografts; DAY 62, dose 5 mg/kg intravenously Q4d×4) was 33 mm^3. For the same molecule, the tumor volume (N87 gastric xenografts; DAY 70, dose 1 mg/kg intravenously Q4d×4) was 521 mm^3, the tumor volume (N87 gastric xenografts; DAY 70, dose 3 mg/kg intravenously Q4d×4) was 139 mm^3 and the tumor volume (N87 gastric xenografts; DAY 70, dose 5 mg/kg intravenously Q4d×4) was 58 mm^3. For the same molecule, the tumor volume (N87 gastric xenografts; DAY 78, dose 1 mg/kg intravenously Q4d×4) was 622 mm^3, the tumor volume (N87 gastric xenografts; DAY 78, dose 3 mg/kg intravenously Q4d×4) was 172 mm^3 and the tumor volume (N87 gastric xenografts; DAY 78, dose 5 mg/kg intravenously Q4d×4) was 67 mm^3. The tumor volume (N87 gastric xenografts; DAY 84, dose 1 mg/kg intravenously Q4d×4) was 709 mm^3, the tumor volume (N87 gastric xenografts; DAY 84, dose 3 mg/kg intravenously Q4d×4) was 149 mm^3 and the tumor volume (N87 gastric xenografts; DAY 84, dose 5 mg/kg intravenously Q4d×4) was 85 mm^3. It also gave a tumor volume (N87 gastric xenografts; DAY 91, dose 1 mg/kg intravenously Q4d×4) of 848 mm^3, a tumor volume (N87 gastric xenografts; DAY 91, dose 3 mg/kg intravenously Q4d×4) of 178 mm^3 and a tumor volume (N87 gastric xenografts; DAY 91, dose 5 mg/kg intravenously Q4d×4) of 104 mm^3. It also gave a tumor volume (N87 gastric xenografts; DAY 99, dose 3 mg/kg intravenously Q4d×4) of 214 mm^3, a tumor volume (N87 gastric xenografts; DAY 99, dose 5 mg/kg intravenously Q4d×4) of 118 mm^3 and a tumor volume (N87 gastric xenografts; DAY 103, dose 3 mg/kg intravenously Q4d×4) of 123 mm^3. For the same molecule, the tumor volume (N87 gastric xenografts; DAY 103, dose 5 mg/kg intravenously Q4d×4) was 135 mm^3, the tumor volume (N87 gastric xenografts; DAY 112, dose 3 mg/kg intravenously Q4d×4) was 126 mm^3 and the tumor volume (N87 gastric xenografts; DAY 112, dose 5 mg/kg intravenously Q4d×4) was 166 mm^3. It also gave a tumor volume (N87 gastric xenografts; DAY 120, dose 3 mg/kg intravenously Q4d×4) of 128 mm^3, a tumor volume (N87 gastric xenografts; DAY 120, dose 5 mg/kg intravenously Q4d×4) of 226 mm^3 and a tumor volume (N87 gastric xenografts; DAY 133, dose 3 mg/kg intravenously Q4d×4) of 175 mm^3. The tumor volume (N87 gastric xenografts; DAY 133, dose 5 mg/kg intravenously Q4d×4) was 258 mm^3 and the “animals that were tumor-free” value (N87 gastric xenografts; by day 133, 5 mg/kg dose group, iv Q4dx4) was 6 out of 9.
